Laboratory results published in patent US6544989B2, “Benzazoles: benzoxazole, benzthiazole and benzimidazole derivatives” (Syngenta Limited, priority 1998, dated 2003).

Columns and labels:
Details in all cases: 500 ppm by weight; mortality assessed usually between three and five days after treatment
[1] = tested on: Musca domestica
[2] = tested on: Tetranychus urticae
[3] = tested on: Heliothis virescens
[4] = tested on: Spodoptera exigua; assay: Pesticidal test, Spodoptera exigua mortality
[5] = tested on: Myzus persicae; assay: Pesticidal test, Myzus persicae mortality

Row | SMILES | MUSCDO AK = Musca domestica (kill), grading of mortality (score) [1] | TETRUR = Tetranychus urticae, grading of mortality (score) [2] | HELIVI = Heliothis virescens, grading of mortality (score) [3] | LAPHEG = Spodoptera exigua, grading of mortality (score) [4] | MYZUPE = Myzus persicae, grading of mortality (score) [5]
1 | Cc1nsc(NC(=O)Cc2ccc3oc(NC(C)(C)C)nc3c2)c1Cl [183(A3)] | 5 (5 indicates 40-79% mortality) | 9 (9 indicates 80-100% mortality) | 5 (5 indicates 40-79% mortality) | 5 (5 indicates 40-79% mortality) | 0 (0 indicates less than 40% mortality)
2 | Cc1nsc(NC(=O)Cc2ccc3oc(N4CCOCC4)nc3c2)c1Cl [191(A3)] | 5 (5 indicates 40-79% mortality) | 9 (9 indicates 80-100% mortality) | 5 (5 indicates 40-79% mortality) | 0 (0 indicates less than 40% mortality) | 0 (0 indicates less than 40% mortality)
3 | COc1nc2cc(CC(=O)Nc3snc(C)c3Cl)ccc2o1 [203(A3)] | 9 (9 indicates 80-100% mortality) | 0 (0 indicates less than 40% mortality) | 0 (0 indicates less than 40% mortality) | 0 (0 indicates less than 40% mortality) | 9 (9 indicates 80-100% mortality)
4 | CCOc1nc2cc(CC(=O)Nc3snc(C)c3Cl)ccc2o1 [204(A3)] | 9 (9 indicates 80-100% mortality) | 0 (0 indicates less than 40% mortality) | 5 (5 indicates 40-79% mortality) | 9 (9 indicates 80-100% mortality) | 9 (9 indicates 80-100% mortality)
5 | CSc1nc2cc(CC(=O)Nc3snc(C)c3Cl)ccc2o1 [220(A3)] | 0 (0 indicates less than 40% mortality) | 0 (0 indicates less than 40% mortality) | 0 (0 indicates less than 40% mortality) | 0 (0 indicates less than 40% mortality) | 5 (5 indicates 40-79% mortality)
6 | CCSc1nc2cc(CC(=O)Nc3snc(C)c3Cl)ccc2o1 [221(A3)] | 5 (5 indicates 40-79% mortality) | 0 (0 indicates less than 40% mortality) | 0 (0 indicates less than 40% mortality) | 0 (0 indicates less than 40% mortality) | 9 (9 indicates 80-100% mortality)
7 | Cc1nsc(NC(=O)Cc2ccc3oc(SC(C)C)nc3c2)c1Cl [223(A3)] | 0 (0 indicates less than 40% mortality) | 0 (0 indicates less than 40% mortality) | 5 (5 indicates 40-79% mortality) | 0 (0 indicates less than 40% mortality) | 9 (9 indicates 80-100% mortality)
8 | Cc1nsc(NC(=O)Cc2ccc3oc(SC(C)(C)C)nc3c2)c1Cl [224(A3)] | 0 (0 indicates less than 40% mortality) | 9 (9 indicates 80-100% mortality) | 5 (5 indicates 40-79% mortality) | 0 (0 indicates less than 40% mortality) | 9 (9 indicates 80-100% mortality)
9 | Cc1nsc(NC(=O)Cc2ccc3oc(SCC#N)nc3c2)c1Cl [228(A3)] | 0 (0 indicates less than 40% mortality) | 0 (0 indicates less than 40% mortality) | 0 (0 indicates less than 40% mortality) | 0 (0 indicates less than 40% mortality) | 0 (0 indicates less than 40% mortality)
